Reference: PubChem BioAssay AID624296 (National Center for Advancing Translational Sciences (NCATS), 2012)
Screen size: about 350,000 compounds; about 9,900 (2.8%) were called active. Inconclusive results, whose numbers are uncertain, are shown with a selection of clear calls. The call rests on the fitted dose curve; in most records, active means well fitted activation curve with a large enough effect; inconclusive means small, poorly fitted or top-dose-only effect; inactive means no such curve, though single readings can be large or run the other way. No potency is given beside an inconclusive call; the fits are too rough.

Assay: A quantitative high throughput screen for small molecules that induce DNA re-replication in MCF 10a normal breast cells. Further: nearly all actives have a fitted effect of over 50% in size.
Conditions: MCF 10A DNA re-replication, Hoechst nuclear intensity, 48 h; series mostly up to 46.1 µM
Potency means the concentration at half of the fitted maximal effect; tags describe the fitted curve by direction and shape.

Structure (SMILES) | Potency
COc1ccc(-c2cc(C)no2)cc1S(=O)(=O)NCc1cccc(C)c1 | inconclusive [activator, single point]
CCCCOc1ccc(N2C(=O)C(C)CNC2=S)cc1 (stereo not given) | inactive
O=C1CC(c2ccc(OCCCCCOc3ccc(C4CC(=O)NC4=O)cc3)cc2)C(=O)N1 (stereo not given) | inconclusive [activator, single point]
CSCCC(=O)N1CCC(n2nccc2NC(=O)CCCc2ccccc2)CC1 | inconclusive [activator, partial curve, poor fit]
CC(C)n1ncc2c(C(=O)O)cc(C3CC3)nc21 | inactive
CC(C)N(Cc1nc(-c2ccccc2)no1)C(=O)CN1C(=O)c2ccccc2C1=O | inactive
Nc1cc(N)nc(SCCOc2ccccc2F)n1 | inactive
Cc1ccc(CNC(=O)Cc2ccc(-c3ccccc3)cc2)cc1 | inconclusive [activator, full curve]
CN(CC(=O)Nc1ccc(F)c(F)c1F)C(=O)C1CCCCC1 | inactive
CC(C)CCOc1cccc(OCC(=O)Nc2ccncc2)c1 | inconclusive [activator, single point]
O=C(Nc1cccc(-n2cccn2)c1)C1CCCN(Cc2cc3ccccc3[nH]2)C1 (stereo not given) | active: 20.6 µM
O=C(COC(=O)/C=C/C(=O)N1CCN(c2ccccc2)CC1)NCc1ccc(F)cc1 | inactive
O=C(CSc1nc(Cc2ccccc2)nc2ccccc12)c1ccc2c(c1)OCCO2 | inconclusive [activator, single point]
O=C(Nc1ncccn1)C1c2ccccc2Oc2ccccc21 | inactive
CN(C)CCSc1nc(-c2ccccc2)nc2c1COC(C)(C)C2 | inactive
CC1(NC(=O)Cc2ccc(Cl)c(Cl)c2)CCS(=O)(=O)C1 (stereo not given) | inconclusive [activator, single point]
Cc1cc(N2CCN(C)CC2)nc2ccc(NC(=S)NCCC(C)C)cc12 | inconclusive [activator, partial curve, poor fit]
O=C(CNC1CCCCCC1)Nc1ccccc1N1CCCCC1 | inconclusive [activator, single point]
COc1ccc2c(c1)c1ncn(Cc3ccco3)c(=O)c1n2C | inactive
Cc1cccc(OCCn2cc(/C=N/NC(=O)c3ccncc3)c3ccccc32)c1 | inconclusive [activator, single point]
CC(=O)N[C@@H]1C(O[C@H]2O[C@H](C(=O)O)C(O)[C@H](O)[C@H]2O)[C@H](O)[C@@H](CO)O[C@H]1O[C@@H]1C(C(=O)O)O[C@@H](O[C@H]2[C@H](O)[C@@H](CO)OC(O)[C@@H]2NC(C)=O)[C@H](O)[C@H]1O (stereo not given in full) | inactive
COc1ccc(Nc2ncnc3c2cnn3Cc2ccccc2)cc1 | inactive
Cc1cc(C)n(C(=O)CCCCCCCC(=O)n2nc(C)cc2C)n1 | inactive
COC(=O)c1ccc(CNC(=O)COC(=O)C2CC3C=CC2C3)cc1 (stereo not given) | inconclusive [activator, partial curve]
CCOC(=O)Cc1csc(NS(=O)(=O)c2ccc3c4c(cccc24)C(=O)N3CC)n1 | inconclusive [activator, partial curve]

Structure (SMILES) | Potency
O=C(O)CC(c1ccc(Cl)cc1)n1cccc1 (stereo not given) | inactive
Cc1ccccc1NC(=O)/C=C/c1ccc([N+](=O)[O-])s1 | active: 1.64 µM
C#C[C@]1(O)CC[C@H]2[C@@H]3CCC4=CC(=O)CC[C@@H]4[C@H]3CC[C@@]21C | inactive
COc1cccc(/C=C(/C(=O)OCC(=O)NC2CCCCCCC2)c2ccccc2)c1 | inconclusive [activator, single point]
Clc1ccc2c(SCC3CO3)c3ccccc3nc2c1 (stereo not given) | inconclusive [activator, full curve, poor fit]
Cc1cc(C(=O)NCCc2ccc(S(N)(=O)=O)cc2)no1 | inactive
CC(=O)N1c2ccc(S(=O)(=O)NCCC(=O)Nc3ccc(OC(F)(F)F)cc3)cc2CC1C (stereo not given) | inconclusive [activator, single point]
CCCCNC(=S)N(C)/N=C/c1ccc(OCc2ccc(C(=O)OC)cc2)c(OC)c1 | inconclusive [activator, partial curve]
COc1cc(CN2CCN(Cc3cccc(OC)c3OC)CC2)cc(OC)c1 | inactive
Cn1c(-c2cccc(Br)c2)cnc1NCc1ccccc1O | inactive
O=C(O)c1ccc(S(=O)(=O)NCc2ccc3c(c2)OCO3)cc1 | inactive
c1ccc(CSc2ncnc3c2ncn3C2CCCCO2)cc1 (stereo not given) | inactive
CCC1Nc2ncnc(N3CCN(c4ccccn4)CC3)c2N(Cc2ccc(Cl)cc2)C1=O (stereo not given) | inactive
Oc1ccc(Nc2nc(-c3ccc(O)cc3)cs2)cc1 | active: 12.6 µM
CCOc1ccc(/C=N/NC(=S)Nc2c(C)cccc2C)cc1 | inactive
C=CCc1cc(C(=O)N2CCCCC2)ccc1O | inactive
CCCc1ccc(-c2c(C)sc(N)c2C#N)cc1 | inactive
CCCN(CCC)C(C)C(=O)NCC1(c2ccccc2)CCCC1 (stereo not given) | inactive
N=c1sc2ccccc2n1-c1ccccc1 | inconclusive [activator, single point]
C/C(=N\NC(=S)NCc1ccccc1)C1CCCCC1 | inconclusive [activator, full curve, poor fit]
CS(=O)(=O)c1ccc(Cl)c(NC(=O)COC(=O)COc2ccc3c(c2)CCC3)c1 | inconclusive [activator, full curve, poor fit]
O=C(Nc1cccc(-c2nn[nH]n2)c1)c1ccc(Br)s1 | inconclusive [activator, single point]
CC(=O)C[C@@H](O)CC(=O)[C@@H]1OC(=O)[C@@H](C)CCCCc2ccccc21 | inactive
COc1cccc(C2=NOC(C(=O)NCc3ccco3)C2)c1 (stereo not given) | active: 4.11 µM
CCN(CC)CC(=O)c1c(N)n(Cc2ccccc2)c(=O)n(C)c1=O | inconclusive [activator, single point]
